{
  "source": "paper PMC10163008",
  "about": "(Nature Communications, 2023)",
  "tested_on": "CHLA-20 cells with ALK R1275Q/L1196M (CRISPR, in cis)",
  "test": "Cell viability assay (Cell Titer-Glo, 120 h)",
  "format": "cell-based, human",
  "conditions": "cell viability after 120 h of treatment",
  "data": [
    {"smiles": "C[C@H]1Oc2cc(cnc2N)-c2c(nn(C)c2C#N)CN(C)C(=O)c2ccc(F)cc21", "note": "[lorlatinib, (10R)-7-amino-12-fluoro-2,10,16-trimethyl-15-oxo-10,15,16,17-tetrahydro-2H-8,4-(metheno)pyrazolo[4,3-h][2,5,11]-benzoxadiazacyclotetradecine-3-carbonitrile]", "values": [
      {"measurement": "IC50", "result": "277 ± 57", "unit": "nM"}
    ]}
  ]
}
